Assay results taken from the GPR68 mutational scans of Howard et al. (2025).

B1: GPR68, Q15743 (parent)
chain: MGNITADNSSMSCTIDHTIHQTLAPVVYVTVLVVGFPANCLSLYFGYLQIKARNELGVYLCNLTVADLFYICSLPFWLQYVLQHDNWSHGDLSCQVCGILLYENIYISVGFLCCISVDRYLAVAHPFRFHQFRTLKAAVGVSVVIWAKELLTSIYFLMHEEVIEDENQHRVCFEHYPIQAWQRAINYYRFLVGFLFPICLLLASYQGILRAVRRSHGTQKSRKDQIQRLVLSTVVIFLACFLPYHVLLLVRSVWEASCDFAKGVFNAYHFSLLLTSFNCVADPVLYCFVSETTHRDLARLRGACLAFLTCSRTGRAREAYPLGAPEASGKSGAQGEEPELLTKLHPAFQTPNSPGSGGFPTGRLA

Tests used:
[1] = variants of: B1; assay: cAMP reporter score (Enrich2 score, wild type = 0); higher = more signal; HEK293T, FACS bins
[2] = variants of: B1; assay: surface expression score (Enrich2 score, wild type = 0); higher = more signal; HEK293T, FACS bins

Variant: P197T
- cAMP reporter score ([1]; pH 5.5): -1.81
- cAMP reporter score ([1]; pH 6): -1.19
- cAMP reporter score ([1]; pH 6, modulator: ogerin): -1.57
- cAMP reporter score ([1]; pH 6.5, modulator: ogerin): -1.3
- surface expression score [2]: -2.37

Variant: P197L
- cAMP reporter score ([1]; pH 5.5): -0.406
- cAMP reporter score ([1]; pH 6): -0.533

Variant: P197W
- cAMP reporter score ([1]; pH 5.5): -0.608
- cAMP reporter score ([1]; pH 6): -0.317
- cAMP reporter score ([1]; pH 6.5, modulator: ogerin): -0.439
- surface expression score [2]: -1.67

Variant: F194_L195del
- cAMP reporter score ([1]; pH 5.5): -1.66
- cAMP reporter score ([1]; pH 6): -0.6
- cAMP reporter score ([1]; pH 6, modulator: ogerin): -1.08
- cAMP reporter score ([1]; pH 6.5, modulator: ogerin): -0.552
- surface expression score [2]: -1.73

Variant: S204_Q206del
- cAMP reporter score ([1]; pH 5.5): -1.54
- cAMP reporter score ([1]; pH 6): -1.12
- cAMP reporter score ([1]; pH 6, modulator: ogerin): -1.29
- cAMP reporter score ([1]; pH 6.5, modulator: ogerin): -1.36
- surface expression score [2]: -2.54

Variant: I198E
- cAMP reporter score ([1]; pH 5.5): -0.838
- cAMP reporter score ([1]; pH 6): 2.35
- cAMP reporter score ([1]; pH 6.5, modulator: ogerin): -2.5
- surface expression score [2]: -1.94

Variant: I198V
- cAMP reporter score ([1]; pH 5.5): 0.791
- cAMP reporter score ([1]; pH 6): 3.5
- cAMP reporter score ([1]; pH 6.5, modulator: ogerin): 3.42
- surface expression score [2]: 1.15

Variant: I198H
- cAMP reporter score ([1]; pH 5.5): -0.822
- cAMP reporter score ([1]; pH 6): -1.56
- cAMP reporter score ([1]; pH 6, modulator: ogerin): -1.43
- cAMP reporter score ([1]; pH 6.5, modulator: ogerin): -1.22
- surface expression score [2]: -2.02

Variant: I198L
- cAMP reporter score ([1]; pH 5.5): -0.012
- cAMP reporter score ([1]; pH 6): 0.465
- cAMP reporter score ([1]; pH 6, modulator: ogerin): 0.325
- cAMP reporter score ([1]; pH 6.5, modulator: ogerin): -0.769
- surface expression score [2]: 0.96

Variant: I198N
- cAMP reporter score ([1]; pH 5.5): -0.629
- cAMP reporter score ([1]; pH 6, modulator: ogerin): -0.86
- cAMP reporter score ([1]; pH 6.5, modulator: ogerin): -0.818
- surface expression score [2]: -1.74

Variant: I198R
- cAMP reporter score ([1]; pH 5.5): -0.962
- cAMP reporter score ([1]; pH 6): -1.99
- cAMP reporter score ([1]; pH 6.5, modulator: ogerin): -1.07
- surface expression score [2]: -1.74

Variant: I198Q
- cAMP reporter score ([1]; pH 5.5): -0.389
- cAMP reporter score ([1]; pH 6, modulator: ogerin): 0.175
- surface expression score [2]: -1.31

Variant: I198M
- cAMP reporter score ([1]; pH 5.5): 0.156
- cAMP reporter score ([1]; pH 6): -0.125
- cAMP reporter score ([1]; pH 6, modulator: ogerin): -0.414
- cAMP reporter score ([1]; pH 6.5, modulator: ogerin): -0.749
- surface expression score [2]: 1.69

Variant: I198P
- cAMP reporter score ([1]; pH 5.5): -0.426
- cAMP reporter score ([1]; pH 6): -0.232
- cAMP reporter score ([1]; pH 6.5, modulator: ogerin): -0.434
- surface expression score [2]: 0.737

Variant: I198C
- cAMP reporter score ([1]; pH 5.5): 1.16
- cAMP reporter score ([1]; pH 6, modulator: ogerin): 1.55
- cAMP reporter score ([1]; pH 6.5, modulator: ogerin): 3.2
- surface expression score [2]: 0.764

Variant: I198W
- cAMP reporter score ([1]; pH 5.5): -0.161
- cAMP reporter score ([1]; pH 6, modulator: ogerin): -0.94
- cAMP reporter score ([1]; pH 6.5, modulator: ogerin): -0.525
- surface expression score [2]: -0.702

Variant: I198Y
- cAMP reporter score ([1]; pH 5.5): -0.313
- cAMP reporter score ([1]; pH 6): -0.373
- cAMP reporter score ([1]; pH 6, modulator: ogerin): 1.41
- surface expression score [2]: -0.379

Variant: I198D
- cAMP reporter score ([1]; pH 5.5): -0.414
- cAMP reporter score ([1]; pH 6): -0.517
- cAMP reporter score ([1]; pH 6.5, modulator: ogerin): -0.397

Variant: I198F
- cAMP reporter score ([1]; pH 5.5): 0.017
- cAMP reporter score ([1]; pH 6): -0.51
- cAMP reporter score ([1]; pH 6, modulator: ogerin): 0.022
- cAMP reporter score ([1]; pH 6.5, modulator: ogerin): -0.289
- surface expression score [2]: 1.43

Variant: V192_G193insGS
- cAMP reporter score ([1]; pH 5.5): -1.56
- cAMP reporter score ([1]; pH 6, modulator: ogerin): -2.59
- cAMP reporter score ([1]; pH 6.5, modulator: ogerin): -0.216
- surface expression score [2]: -1.95

Variant: G193del
- cAMP reporter score ([1]; pH 5.5): -0.291
- cAMP reporter score ([1]; pH 6): 1.33
- cAMP reporter score ([1]; pH 6, modulator: ogerin): -2.86
- cAMP reporter score ([1]; pH 6.5, modulator: ogerin): -1.07
- surface expression score [2]: -2.15

Variant: L202_A203insGSG
- cAMP reporter score ([1]; pH 5.5): -0.879
- surface expression score [2]: -2.54

Variant: L195_F196del
- cAMP reporter score ([1]; pH 5.5): -1.35
- cAMP reporter score ([1]; pH 6): -0.845
- cAMP reporter score ([1]; pH 6, modulator: ogerin): -0.854
- cAMP reporter score ([1]; pH 6.5, modulator: ogerin): -1.48
- surface expression score [2]: -2.82

Variant: L191W
- cAMP reporter score ([1]; pH 5.5): 0.903
- cAMP reporter score ([1]; pH 6): -0.278
- cAMP reporter score ([1]; pH 6, modulator: ogerin): 0.142
- cAMP reporter score ([1]; pH 6.5, modulator: ogerin): -0.527
- surface expression score [2]: -0.108

Variant: L191R
- cAMP reporter score ([1]; pH 5.5): -2.42
- cAMP reporter score ([1]; pH 6): -1.09
- cAMP reporter score ([1]; pH 6, modulator: ogerin): -1.72
- cAMP reporter score ([1]; pH 6.5, modulator: ogerin): -1.11
- surface expression score [2]: -2.76

Variant: L191Y
- cAMP reporter score ([1]; pH 5.5): 0.531
- cAMP reporter score ([1]; pH 6): -0.6
- cAMP reporter score ([1]; pH 6, modulator: ogerin): 0.866
- cAMP reporter score ([1]; pH 6.5, modulator: ogerin): -0.57
- surface expression score [2]: -0.307

Variant: L191V
- cAMP reporter score ([1]; pH 5.5): 0.961
- cAMP reporter score ([1]; pH 6): 0.446
- cAMP reporter score ([1]; pH 6, modulator: ogerin): 0.204
- cAMP reporter score ([1]; pH 6.5, modulator: ogerin): 1.06
- surface expression score [2]: 0.859

Variant: L191T
- cAMP reporter score ([1]; pH 5.5): 0.311
- cAMP reporter score ([1]; pH 6): -0.507
- cAMP reporter score ([1]; pH 6, modulator: ogerin): -0.118
- cAMP reporter score ([1]; pH 6.5, modulator: ogerin): 1.08
- surface expression score [2]: 0.442

Variant: L191S
- cAMP reporter score ([1]; pH 5.5): -0.708
- cAMP reporter score ([1]; pH 6): -1.14
- cAMP reporter score ([1]; pH 6, modulator: ogerin): -0.465
- cAMP reporter score ([1]; pH 6.5, modulator: ogerin): -0.333
- surface expression score [2]: -0.635

Variant: L191_V192insGS
- cAMP reporter score ([1]; pH 5.5): -1.92
- cAMP reporter score ([1]; pH 6): -1.82
- cAMP reporter score ([1]; pH 6, modulator: ogerin): -1.88
- cAMP reporter score ([1]; pH 6.5, modulator: ogerin): -1.56
- surface expression score [2]: -2.79

Variant: A203_S204insGSG
- cAMP reporter score ([1]; pH 5.5): -0.966
- cAMP reporter score ([1]; pH 6): -1.52
- cAMP reporter score ([1]; pH 6, modulator: ogerin): -1.12
- cAMP reporter score ([1]; pH 6.5, modulator: ogerin): -1.1
- surface expression score [2]: -2.66

Variant: F196_P197insGSG
- cAMP reporter score ([1]; pH 5.5): -1.2
- cAMP reporter score ([1]; pH 6): -1.52
- cAMP reporter score ([1]; pH 6, modulator: ogerin): -1.61
- cAMP reporter score ([1]; pH 6.5, modulator: ogerin): -1.52
- surface expression score [2]: -3.03

Variant: L191_G193del
- cAMP reporter score ([1]; pH 5.5): -1.06
- cAMP reporter score ([1]; pH 6): -0.924
- cAMP reporter score ([1]; pH 6, modulator: ogerin): -2.31
- cAMP reporter score ([1]; pH 6.5, modulator: ogerin): -0.266
- surface expression score [2]: -2.94

Variant: L201_L202insGS
- cAMP reporter score ([1]; pH 5.5): -0.372
- cAMP reporter score ([1]; pH 6): -1.69
- cAMP reporter score ([1]; pH 6.5, modulator: ogerin): -1.19
- surface expression score [2]: -2.35

The least precise scores are not listed. Not listed are two conditions whose scores span a narrow range. In variant names, del marks residues removed and ins residues inserted between the two positions. For some assays here: The concentration of ogerin is not given here.
